The campaign covered roughly 420,000 compounds. About 64,000 (15%) were called active. The shares of active, inactive and inconclusive entries below differ from those in the screen. Calls come from the whole dose curve; as a rule, active = well fitted inhibition curve with a large enough effect; inconclusive = small, poorly fitted or top-dose-only effect; inactive = flat fitted curve, though single readings scatter. Potencies of inconclusive entries are left out as doubtful fits.
test: qHTS for Inhibitors of human tyrosyl-DNA phosphodiesterase 1 (TDP1): qHTS in cells in absence of CPT; conditions: DT40 Tdp1-/- hTDP1 cells, no CPT, ATP luminescence, 48 h; series mostly up to 46.2 µM; note: nearly all actives have a fitted effect of over 55% in size
Procedure, shortened: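 Seeded 400 DT40-hTDP1 cells/well (vehicle DMSO, no 20 nM CPT); pinned compounds; ≥48 hr at 37 °C; CellTiter-Glo luminescence as viability measure.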
Potency is the fitted concentration of half-maximal effect; tags give direction and shape of the fitted curve.

For `CC(C)c1nc2sc3c(SCCN(C)C)ncnc3c2c2c1CCC2`, which Potency is on record?
Its Potency is inconclusive [inhibitor, single point].

With `Cc1cccc(-c2nc3cc(NC(=O)C4CCCO4)ccc3o2)c1` (stereo not drawn) as the compound, how does the Potency read?
The Potency was inconclusive [inhibitor, single point].

With `CC(C)(C)NC(=O)C(c1cc2ccccc2o1)n1c(=O)c(-c2ccccc2)nc2ccccc21` (stereo not drawn) as the compound, how does the Potency read?
The Potency was inconclusive [inhibitor, single point].

For `C=CCn1c(COc2ccccc2C)nnc1SCC(=O)O`, which Potency is on record?
The Potency was “inactive”.

For `C=CCn1c(SCC(=O)N2CC(=O)Nc3ccccc32)nc2scc(-c3ccccc3)c2c1=O`, which Potency is on record?
Its Potency is inconclusive [inhibitor, single point].

For `O=C(CCN1CCN(CC(=O)Nc2ccccc2F)CC1)Nc1ccccc1F`, which Potency is on record?
The Potency was inconclusive [inhibitor, partial curve].

For `CCN1CCOC(=O)C1CC(=O)Nc1cc(C)ccc1OC` (stereo not drawn), which Potency is on record?
The Potency was active: 2.59 µM.

For `CCSc1nc2ccccc2n1C(=O)/C=C/c1ccc(OC)c(OC)c1`, which Potency is on record?
Its Potency is active: 3.26 µM.

For `CCOC(=O)c1sc(NC(=O)c2ccc(OC)cc2)nc1C`, which Potency is on record?
The Potency was “inactive”.

For `CC(C)(C)OC(=O)N(Cc1ccccc1)Cc1ccc(OCc2cccc(NC(=O)C3CC3)c2)cc1`, which Potency is on record?
The Potency was inconclusive [inhibitor, single point].

With `N#C/C(=C\c1cn(CCOc2ccccc2)c2ccccc12)C(=O)NCC1CCCO1` (stereo not drawn) as the compound, how does the Potency read?
Its Potency is inconclusive [inhibitor, partial curve, poor fit].

With `Cc1ccc(NC(=O)c2nc[nH]c2C(=O)N(C)Cc2ccccc2)cc1` as the compound, how does the Potency read?
The Potency was inconclusive [inhibitor, single point].

With `CC(=O)N1CCOc2ccc(S(=O)(=O)NC(C)c3ccccc3)cc21` (stereo not drawn) as the compound, how does the Potency read?
Its Potency is “inactive”.

For `Cc1cccc(-c2nc(NCCCN3CCOCC3)c3ccccc3n2)c1`, which Potency is on record?
Its Potency is inconclusive [inhibitor, single point].

With `O=C(COC(=O)c1cccc(S(=O)(=O)N2CCCC2)c1)Nc1ccccc1` as the compound, how does the Potency read?
The Potency was “inactive”.

With `O=C(Nc1cccc(Cl)c1)C1CCN(C(=O)c2cccs2)CC1` as the compound, how does the Potency read?
Its Potency is “inactive”.

With `O=[N+]([O-])c1ccccc1NCc1c(O)ccc2ccccc12` as the compound, how does the Potency read?
The Potency was inconclusive [inhibitor, partial curve].

Which Potency does the source give for `O=C(COC(=O)C1CC2CCCC(C1)C2=O)Nc1nc(-c2ccc(F)c(F)c2)cs1` (stereo not drawn) here?
The Potency was inconclusive [inhibitor, single point].

With `CN(CC(=O)Nc1cccc(S(=O)(=O)N2CCOCC2)c1)CC(=O)Nc1ccc(Cl)c(C(F)(F)F)c1` as the compound, how does the Potency read?
Its Potency is active: 7.31 µM.

For `O=C(CSc1nc2ccccc2o1)Nc1cc(C(F)(F)F)ccc1N1CCOCC1`, which Potency is on record?
Its Potency is inconclusive [inhibitor, single point].

Which Potency does the source give for `O=C(Cn1[nH]c(=O)c2ccccc2c1=O)OCC(=O)c1ccccc1` here?
The Potency was “inactive”.

For `CC(=NNC(=O)c1cccs1)c1ccc2c(c1)OCCO2`, which Potency is on record?
The Potency was inconclusive [inhibitor, single point].

For `CCCc1cc(=O)[nH]c2nnc(SC(C)CC)n12` (stereo not drawn), which Potency is on record?
Its Potency is “inactive”.

Which Potency does the source give for `Cc1ccc(C(=O)OCC(=O)NCC2COc3ccccc3O2)cc1` (stereo not drawn) here?
Its Potency is “inactive”.

Which Potency does the source give for `O=C(CSc1ccc(-c2cccc([N+](=O)[O-])c2)nn1)NCc1ccccc1` here?
The Potency was inconclusive [inhibitor, single point].

With `Cc1ccc(S(=O)(=O)c2ccc(Oc3cccc(C)c3)cc2)cc1` as the compound, how does the Potency read?
Its Potency is active: 20.6 µM.

With `CC1(C)CNC(=O)CC(C)(C)N1` as the compound, how does the Potency read?
The Potency was “inactive”.

With `CC1(C)C2CC=C(/C=N/n3cnnc3)C1C2` (stereo not drawn) as the compound, how does the Potency read?
The Potency was “inactive”.

For `CCCCCN1CC(O)=C(c2nc(-c3ccc(Cl)cc3)cs2)C1=N`, which Potency is on record?
The Potency was “inactive”.

Which Potency does the source give for `CCCc1[nH]nc2c1C(c1c(C)nn(-c3ccccc3)c1Cl)C(C#N)=C(N)O2` (stereo not drawn) here?
The Potency was inconclusive [inhibitor, single point].

For `O=C(c1cc(-c2ccccc2)nn1-c1ccccc1)N1CCN(S(=O)(=O)c2ccc(F)cc2)CC1`, which Potency is on record?
Its Potency is inconclusive [inhibitor, single point].

For `CNC(=O)c1c(O)c2cccc3c2n(c1=O)CC3`, which Potency is on record?
Its Potency is inconclusive [inhibitor, single point].

With `Cc1cc(C)c2cc(CN(Cc3cccs3)Cc3nnnn3CC3CCCO3)c(=O)[nH]c2c1` (stereo not drawn) as the compound, how does the Potency read?
Its Potency is inconclusive [inhibitor, single point].

For `CCCN1CNc2c(c(=O)[nH]c(=S)n2CCc2ccccc2Cl)C1`, which Potency is on record?
Its Potency is active: 11.2 µM.

With `COc1ccc(/C=C/c2ccc3cccc(O)c3n2)cc1Br` as the compound, how does the Potency read?
Its Potency is active: 5.17 µM.

For `O/N=C/c1ccc2ccccc2c1`, which Potency is on record?
The Potency was “inactive”.

For `Cc1ccc(-c2nc(CSc3nc4ccccc4c(=O)n3C)cs2)cc1`, which Potency is on record?
The Potency was active: 25.9 µM.

For `N#C/C(=C\C=C\c1ccccc1)C(=O)Nc1ccccc1`, which Potency is on record?
The Potency was “inactive”.

Which Potency does the source give for `COc1ccc(-c2cc(=O)oc3cc(OC(C)C(=O)Nc4ccc(CN5CCOCC5)cc4)ccc23)cc1` (stereo not drawn) here?
The Potency was inconclusive [inhibitor, single point].

With `CN(c1ncc(C(F)(F)F)cc1Cl)N1C(=O)c2cccc([N+](=O)[O-])c2C1=O` as the compound, how does the Potency read?
Its Potency is “inactive”.

For `CCCC(=O)N(Cc1cc2cc(OC)ccc2[nH]c1=O)c1ccccc1OC`, which Potency is on record?
The Potency was inconclusive [inhibitor, single point].

With `C/C(=N\Nc1nc(N)cc(Cl)n1)c1ccc(Cl)c(Cl)c1` as the compound, how does the Potency read?
The Potency was inconclusive [inhibitor, single point].

Which Potency does the source give for `Cc1cc(Cl)ccc1NC(=O)CSc1n[nH]c(N)n1` here?
The Potency was “inactive”.

For `CC(C)COc1ccc(C(=O)NCC2(N3CCN(C)CC3)CCCCC2)cc1`, which Potency is on record?
The Potency was active: 18.4 µM.

Which Potency does the source give for `C[C@H]1CN([C@@H](C)CO)S(=O)(=O)c2ccc(C#CC(C)(C)O)cc2O[C@H]1CN(C)Cc1ccccc1` here?
Its Potency is active: 23.1 µM.

Which Potency does the source give for `CCc1ccccc1NC(=O)CN(C)C(=O)CSc1nn(-c2ccc(F)cc2)c(=S)s1` here?
Its Potency is “inactive”.

For `O=[N+]([O-])c1cccc(N/N=C/c2cccc3ccccc23)c1`, which Potency is on record?
The Potency was inconclusive [inhibitor, single point].

Which Potency does the source give for `CCCCC(NC(=O)c1ccccc1)C(=O)OCC(=O)N1c2ccccc2Sc2ccccc21` (stereo not drawn) here?
Its Potency is inconclusive [inhibitor, single point].

From PubChem BioAssay AID686978 (National Center for Advancing Translational Sciences (NCATS), 2013)
